Test results as given in the supplement of paper PMC12217912.
The list shows a part of the results. The full chains were built here from the parent and the listed change. Values near 0.05 are background.

B1: TEV protease; numbered along this chain (parent)
chain: MGESLFKGPRDYNPISSSICHLTNESDGHTTSLYGIGFGPFIITNKHLFRRNNGTLVVQSLHGVFKVKDTTTLQQHLVDGRDMIIIRMPKDFPPFPQKLKFREPQREERICLVTTNFQTKSMSSMVSDTSCTFPSGDGIFWKHWIQTKDGQCGSPLVSTRDGFIVGIHSASNFTNTNNYFTSVPKNFMELLTNQEAQQWVSGWRLNADSVLWGGHKVFMVKPEEPFQPVKEATQL

Variants of: B1
Experiment: raw area under fraction-flipped curve 0-4 h after induction (AUC4h, not background-subtracted), DNA-recorder readout of cleavage of the substrate (dimensionless); higher = more cleavage of the substrate by the protease variant
Conditions: temperature: 34 °C; time window: 0-4 h after rhamnose induction
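Note: Bxb1 expression induced with 0.2% (w/v) L-rhamnose at OD600 near 0.5, cultures sampled hourly, flipped fraction per protease–substrate barcode pair counted by paired-end Illumina sequencing.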

Variant	area with substrate ENLYFES	area with substrate ENLYFFS	area with substrate ENLYFGS	area with substrate ENLYFHS	area with substrate ENLYFIS	area with substrate ENLYFMS	area with substrate ENLYFNS	area with substrate ENLYFPS	area with substrate ENLYFRS	area with substrate ENLYFSS	area with substrate ENLYFTS	area with substrate ENLYFVS	area with substrate ENLYFWS	area with substrate ENLYFYS	area with substrate ENLYFKS	area with substrate ENLYFLS
T159G	0.0623	0.0663	0.0663	0.0397	0.0548	0.0762	0.0731	0.0558	0.0649	0.0603	0.0481	0.0418	0.055			
E108P	0.0862	0.0339		0.0488		0.0528					0.0632		0.0314			
Q59V	0.0884	0.0534				0.0605	0.0716	0.0711					0.0697	0.0577		
V78G	0.0611	0.0749	0.0757	0.0532	0.0271	0.0491	0.0524	0.0577		0.0616	0.0418				0.0702	
M219L	0.0102			0.054	0.006			0.0561	0.0544	0.063			0.0532			
K100N		0.0788	0.0692	0.0603	0.06	0.0702	0.0603		0.0537		0.0849				0.0569	
K148M	0.0759	0.0675			0.0524	0.0739	0.0671		0.0699			0.083	0.0566	0.0591	0.0491	0.0674
G213K	0.058	0.08	0.0516		0.0555	0.0545	0.0895	0.0578	0.064	0.0587	0.0506	0.053	0.0556	0.0533	0.0516	
S182W		0.0737		0.0478	0.0542	0.0509	0.066	0.0583		0.0876			0.0311	0.0764	0.0578	
N52M	0.0558	0.0765	0.081	0.0533	0.0405	0.0623	0.0448				0.0466					
R10I		0.0634		0.0704				0.0561			0.0675	0.0486		0.0586		0.0686
Q105T	0.0753	0.0733		0.0702	0.0604	0.0956		0.0524	0.0673	0.0818		0.059				0.0486
S121Y	0.0718	0.0765		0.0578	0.0552			0.0605				0.0665		0.0606		
T192Y		0.0763			0.0604	0.0442		0.062			0.0574		0.0666	0.0617		
S201P	0.0576	0.0765		0.0584	0.0593	0.0528		0.0597	0.0633	0.0574	0.0586	0.0658	0.0627	0.048	0.0468	0.0723
L205F		0.0656		0.0346	0.0571						0.0575	0.0064	0.0303	0.0732	0.0914	0.0384
S209C	0.0531	0.0747	0.0586		0.0532	0.0742					0.0625		0.0599	0.0601	0.0772	
L61N	0.0637	0.0577			0.0608	0.0751	0.0683	0.0538				0.0448		0.0658		0.0575
G35L		0.0589	0.0412		0.049			0.0448			0.0522	0.0446	0.0515	0.0516		
G166Q	0.0485	0.0639		0.0669	0.0477	0.0142	0.0546		0.0615	0.0636	0.05	0.0505		0.0433	0.0705	
V57T	0.031	0.0587	0.052		0.0586	0.0646	0.0567	0.0662	0.0703	0.0542	0.063	0.0791	0.0592	0.0448		
G202S	0.0557	0.0757	0.0588	0.0629	0.0644	0.0585	0.0622	0.053		0.0565		0.0649	0.0563	0.0629		
V64F					0.0563					0.0557					0.0488	
L77T					0.0433		0.0422	0.0556	0.0446	0.073	0.0676	0.0484	0.0497			0.0641
K221T	0.0709	0.0534		0.0538	0.053		0.0802	0.0508	0.0269							0.0573
